Test results reported in a collection of fitness landscapes (doi:10.1126/science.1257360).
Some of the results follow.

B1: PhoQ; a variant is named by its letters at X, in order, P23837 (parent)
chain: MKKLLRLFFPLSLRVRFLLATAAVVLVLSLAYGMVALIGYSVSFDKTTFRLLRGESNLFYTLAKWENNKLHVELPENIDKQSPTMTLIYDENGQLLWAQRDVPWLMKMIQPDWLKSNGFHEIEADVNDTSLLLSGDHSIQQQLQEVREDDDDAEMTHSVAVNVYPATSRMPKLTIVVVDTIPVELKSSYMVWSWFIYVLSANLLLVIPLLWVAAWWSLRPIEALAKEVRELEEHNRELLNPATTRELTSLVRNLNRLLKSERERYDKYRTTLTDLTHSLKTPLXXLQXXLRSLRSEKMSVSDAEPVMLEQISRISQQIGYYLHRASMRGGTLLSRELHPVAPLLDNLTSALNKVYQRKGVNISLDISPEISFVGEQNDFVEVMGNVLDNACKYCLEFVEISARQTDEHLYIVVEDDGPGIPLSKREVIFDRGQRVDTLRPGQGVGLAVAREITEQYEGKIVAGESMLGGARMEVIFGRQHSAPKDE

Variants of: B1
Assay: enrichment ratio after two sorts for PhoP signalling (ratio (wild type AVST 3.29)); higher = more functional
Details: with PhoP (E. coli)

Row | Variant | enrichment ratio
1 | RRPC | ≤ 0.25
2 | PYLT | ≤ 0.25
3 | GKHF | ≤ 0.25
4 | DGEV | ≤ 0.25
5 | LEKK | ≤ 0.25
6 | VINI | ≤ 0.25
7 | YGEA | ≤ 0.25
8 | VKAK | ≤ 0.25
9 | ILEF | ≤ 0.25
10 | TKLK | ≤ 0.25
11 | RPNL | ≤ 0.25
12 | TVYH | ≤ 0.25
13 | NHGD | ≤ 0.25
14 | FLIE | ≤ 0.25
15 | TIWN | ≤ 0.25
16 | NIHH | ≤ 0.25
17 | NSIG | ≤ 0.25
18 | GLHN | ≤ 0.25
19 | TIKM | ≤ 0.25
20 | GTYS | ≤ 0.25
21 | GLCC | ≤ 0.25
22 | KMGC | ≤ 0.25
23 | RYWY | ≤ 0.25
24 | AIWP | ≤ 0.25
25 | ILGH | ≤ 0.25
26 | LFQG | ≤ 0.25

Row | Variant | enrichment ratio
27 | RCYC | ≤ 0.25
28 | IHMT | ≤ 0.25
29 | YEIY | ≤ 0.25
30 | YWYS | ≤ 0.25
31 | AMPN | ≤ 0.25
32 | IYCL | ≤ 0.25
33 | SCTC | 7.94
34 | EIKV | ≤ 0.25
35 | SMWS | ≤ 0.25
36 | LASL | ≤ 0.25
37 | FTPH | ≤ 0.25
38 | SYGD | ≤ 0.25
39 | SNNE | 3.95
40 | LNYW | ≤ 0.25
41 | HAIV | ≤ 0.25
42 | RGSA | ≤ 0.25
43 | VEWR | ≤ 0.25
44 | HHDV | ≤ 0.25
45 | FQSH | ≤ 0.25
46 | TFDM | ≤ 0.25
47 | HGKS | ≤ 0.25
48 | VSQH | ≤ 0.25
49 | LHWA | 0.535
50 | GTWD | ≤ 0.25
51 | YQIF | ≤ 0.25
52 | NFED | ≤ 0.25

Row | Variant | enrichment ratio
53 | MGYV | 13.4
54 | ETFK | ≤ 0.25
55 | STSP | ≤ 0.25
56 | DAHS | ≤ 0.25
57 | EAHQ | ≤ 0.25
58 | DCNV | ≤ 0.25
59 | LPWF | ≤ 0.25
60 | KNDP | ≤ 0.25
61 | TPKV | ≤ 0.25
62 | RTHM | ≤ 0.25
63 | MSYQ | 5.85
64 | KYDL | ≤ 0.25
65 | MTSY | ≤ 0.25
66 | KGWT | ≤ 0.25
67 | WQHR | ≤ 0.25
68 | FMCG | ≤ 0.25
69 | WKTA | ≤ 0.25
70 | DKRS | ≤ 0.25
71 | EKMA | ≤ 0.25
72 | LPDD | ≤ 0.25
73 | KMDL | ≤ 0.25
74 | FESN | ≤ 0.25
75 | NLPK | ≤ 0.25
76 | QTKC | ≤ 0.25
77 | LQPN | ≤ 0.25
78 | FNTK | ≤ 0.25

Row | Variant | enrichment ratio
79 | AMGF | ≤ 0.25
80 | QLSC | ≤ 0.25
81 | MEQN | ≤ 0.25
82 | PQVT | ≤ 0.25
83 | TEQR | 4.96
84 | FTWR | ≤ 0.25
85 | WYMS | ≤ 0.25
86 | FCNY | ≤ 0.25
87 | SRLT | ≤ 0.25
88 | LRWQ | ≤ 0.25
89 | VYNQ | ≤ 0.25
90 | AKFP | ≤ 0.25
91 | DDRC | ≤ 0.25
92 | KLLI | ≤ 0.25
93 | KTEM | ≤ 0.25
94 | HDTI | ≤ 0.25
95 | GLYM | ≤ 0.25
96 | EVQF | 3.3
97 | PPFY | ≤ 0.25
98 | VYPS | ≤ 0.25
99 | AFCL | 0.756
100 | AQKY | ≤ 0.25
101 | HRMT | ≤ 0.25
102 | IHTN | ≤ 0.25
103 | KDHM | ≤ 0.25
104 | ICDT | ≤ 0.25

Row | Variant | enrichment ratio
105 | TTNM | 4.46
106 | MFHK | ≤ 0.25
107 | PHGL | ≤ 0.25
108 | WYWC | ≤ 0.25
109 | GIQG | ≤ 0.25
110 | DWAY | ≤ 0.25
111 | PNAF | ≤ 0.25
112 | TRAK | ≤ 0.25
113 | MYKA | ≤ 0.25
114 | SFVD | ≤ 0.25
115 | FLTE | ≤ 0.25
116 | IQNA | ≤ 0.25
117 | RCTG | ≤ 0.25
118 | FEVV | 11.9
119 | QATN | ≤ 0.25
120 | VTLN | 1.75
121 | DVNV | ≤ 0.25
122 | NYWD | ≤ 0.25
123 | WTCG | ≤ 0.25
124 | TIIL | ≤ 0.25
125 | AAAL | 4.97
126 | MVST | 1.58
127 | RFHQ | ≤ 0.25
128 | MYRT | ≤ 0.25
129 | RPHC | ≤ 0.25
130 | NNYA | ≤ 0.25

Row | Variant | enrichment ratio
131 | MGSP | ≤ 0.25
132 | HCYQ | ≤ 0.25
133 | MMTM | 10.9
134 | MEFR | 2.74
135 | EIFC | ≤ 0.25
136 | QQYT | ≤ 0.25
137 | TLLV | 1.16
138 | ESWD | ≤ 0.25
139 | KMEN | ≤ 0.25
140 | FEWM | ≤ 0.25
141 | LLDT | ≤ 0.25
142 | NEWL | 0.808
143 | PMRS | ≤ 0.25
144 | VLRM | ≤ 0.25
145 | EHKT | ≤ 0.25
146 | WGMP | ≤ 0.25
147 | VHRF | ≤ 0.25
148 | FEPR | ≤ 0.25
149 | HQQF | ≤ 0.25
150 | TEPY | ≤ 0.25
151 | TSRS | ≤ 0.25
152 | KKVF | 4.44
153 | RTRY | ≤ 0.25
